# Data as given in the supplement of paper PMC10681739.
# ± gives the standard deviation of the averaged measurements. Over roughly 4,100 sequences, “arbitrary fluorescence units” has its median near 780; the highest 2% begin near 22,000. The list shows a part of the results.
# Molecular target: T1, ETS1 (UniProt P14921)
# T1 sequence: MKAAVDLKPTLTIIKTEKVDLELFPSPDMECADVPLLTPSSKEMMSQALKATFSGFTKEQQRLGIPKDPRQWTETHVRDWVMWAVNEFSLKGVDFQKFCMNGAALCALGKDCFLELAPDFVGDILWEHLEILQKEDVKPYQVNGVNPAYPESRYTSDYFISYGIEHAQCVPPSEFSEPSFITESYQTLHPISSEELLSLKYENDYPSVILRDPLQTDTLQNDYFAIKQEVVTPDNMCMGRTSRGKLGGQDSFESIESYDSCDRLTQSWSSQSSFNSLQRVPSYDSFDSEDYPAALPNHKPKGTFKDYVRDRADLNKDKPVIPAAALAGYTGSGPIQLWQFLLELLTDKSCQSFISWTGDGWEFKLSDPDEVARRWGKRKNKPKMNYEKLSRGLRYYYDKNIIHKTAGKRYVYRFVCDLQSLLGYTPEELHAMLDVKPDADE
# Assay: ETS1 binding intensity (PBM fluorescence), ETS1 alone (arbitrary fluorescence units); higher = stronger binding
# Conditions: ETS1 concentration 1 nM; RUNX1 concentration 0 nM
# Summary of the method: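 Full-length recombinant human ETS1 (1 nM, no RUNX1) was incubated, per standard PBM protocols, on double-stranded Agilent 4 × 180k arrays of 36-bp genomic probes whose RUNX1 partner site was mutated. Bound ETS1 was detected with anti-ETS1 antibody (Cell Signaling Technology 14069) and Alexa488-conjugated secondary antibody, then scanned on a GenePix 4400A. Binding level is spot fluorescence intensity, summarised over replicate spots (four printed per sequence) and not normalised.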
row,Sequence,ETS1 binding intensity
1,GGCTGTGTTGGGGTTACTGCGGAAACTTCATTTTTC,493
2,ACAGGAAGTGAGGCTGTGAGGAGTTTTTGGTGTGTA,2020
3,AGTGGGGCCCCAGGATGTGTTTTGGTCTTGCAAGGT,390
4,TTGGGGTTTGGTTTAACCCCTGTAATTTCCTGTAAA,750
5,TGTCTGACGTTTCTCTGTGAACAGGAAGCTGAGAAC,1150
6,CGTCACTTCCCACGCGACTGCCAGCGGGAAACATGG,1190
7,CTGGTCACTGGGGTGAGGAGGCTTTTCCTGGGGTAA,387
8,ACCACCTACAGCCGTCTAACATCACTTCCTTCAGAG,657
9,GAGGGCTGCTTCCTGCTCTGTGGAGGCCGCTGAGGG,6710
10,GTCGGAGATGGTGGACACGAGCGCTTCCGGGTCAGC,1730
11,TTCGCGTGCTCACTTTCGCGTCCATTCCGGGCTTCT,386
12,CCCAGCCACATCCCAGAGCAGCTAACCTACAGTCCT,480
13,AGCGCAGCCGTAGACTCCGCTCACATCCCCGGGTCG,314
14,TCGCACCGGAACCCCTTGGCGGATTATGTGAGTTCA,669
15,GTCCTTTCTCGTGGGCAAGGAAGTGGGGCCCCAGGG,416
16,GGGCAGCATCCTGTGCCTGCTTCTCTTACCTACATC,4780
17,CTTCTCGCGGAAGCGGCACAAGGCGCAGTACAGCGC,589
18,CATGCCTACCCTCGGGCCCTCTCAGCTTCCGTACAC,401
19,CTGAGGGTGACTGAGCGGGGCCAGCCGGAAGGGCGG,449
20,GCTGAGCACATTAAACCAGCGCCCACTTCCTCTCAC,824
21,TGTCGGGCTCCGGGGGCGGGGAAGTGGCGGCTGAAG,810
22,GTGACGTGGCTGTAGGTCTCATTTCCTGCACGGCCT,2060
23,CAAATCCACTTGGCAGCTGAGTCAACATCCTGCCTG,1650
24,GCTCCAACCGGCGCACTTTCGGAGAACGGGAAGGGG,412
25,TTTTCTCTAAACTACATCAAAACCAGGAAACCAGTC,650
26,GTTCCTGGTTTGTAGTTATGATTTCCTGTTTGCCTT,3820
27,GCTGGCGGCGGAGGTCCTGTGGAGCTTCCTCTTCGG,360

row,Sequence,ETS1 binding intensity
1,TGACATTTCCGGCCCCACCTCGGCCTGCAGCGCCGC,40200
2,TGTGTAAGAGGAAACACCAAAACTACAAATATGAAA,702
3,CGGGCTCTCCAGGAAGGTGGCTGCGCCGACAAAATG,316
4,CCCGGCTGAGGGCCCAGGAACTACATTTCCTAGAAG,389
5,CCCCCAGCGGCCAGGAGCAGTCCGGAAGTCGCAGCC,1820 ± 140
6,CAGTCAGACGGAAGCCCGGCTTCTGAGGTGCCTGCC,789
7,AAGGCAAACAGGAAATCATAACTACAAACCAGGAAC,7790
8,TATAATTTACGGCTGGGTGTTTCCTGTTTTTTTGCA,1540
9,CTTCCTATGAAAAGCACTTTCCTTCCTACCAAAACC,503
10,AAGTTCTTCCGGGTCTGCAGTCTCTGGTGTGTTTGC,5300
11,GAGTGGCTGTTGTCTCGGGCGGATGGGGAGAAGAGA,521
12,GGTCTGAGCGGAGGAGGGAAGCAGACAGGAAGTGGG,3130
13,AGCGCGAGGCCGCTGAGGGGAGTGACCGGAAGTGGC,7150
14,TCTGTTTTGTGAGTTCCCTGCCCCCCTTCCGCCTTT,517
15,GTGCTGAGCAGCTTCCCGTCTGCGCTGAAGACAGCC,2450
16,GCAGTCCTGAGGTGAGTATTTATTTCCTGCTGTTCT,786
17,TTCTTGTTTCCTGTCAAGGGAGGCTCTGAGCACCTC,11500
18,GGCTGCGACTTCCGGACTGCTCCTGGCCGCTGGGGG,22900 ± 1200
19,TCAAAGTAAAAGCTCAGTGTTTCCGTGTTCTAAGCA,679
20,GACTCGCTCTTCGGCCCCACGCAGGAAGCCTCCTTG,354
21,GCTCGGGGTGCCTCTGGGTCAGGTGAGACGGACGTG,341
22,TGCGCCGGAAGTGCATGAGCTGCCGATGAGGTGCTT,8970
23,TCCCCTTTCCGGGAAGGGTTGGGGATCTGAGCACGT,3420
24,TCTCCCGGAACTGCTCCTTCACCATGATGACGGCTG,650
25,CGTGTTTTGGGGCTGTGTTCTGTCCGGTCAGTTGTT,600 ± 82
26,ACAGGAAGAGATATTATATCTCCCTGGGGTTGGTTT,537
27,TACGCAGCCTACAAGCCCGACAGGATGTCATGAATA,962

row,Sequence,ETS1 binding intensity
1,TGATGTGCTCATAACACCCTCCCCTCAGCTTCCTTA,355
2,TGATGCAGGAAGGGGTGGAGTCACCTCAGGAGGTAG,525
3,GAGGAGATTTCCGGCCCCCATCCCCTCAGCGACCTT,15100
4,GGCAGGAGCTTCCGGCTCAGCCCTTCGGCCTGTGCC,8290
5,TCAGCTGCGCGATGAGTCAGTGCGAGCAGGAAGCAC,410
6,AGCACCCGGAAGTCGGAGCTGCGCACGCACCGAGGG,7420
7,CAGGCAGGATGTTGACTCAGCTGCCAAGTGGATTTG,4000
8,AAGTTCGCAGCCGCCAAGAGGGGAAACGGGCTGCGC,324
9,TCTTCGGCCTCCTCCACCCCCACACTTCCTCTCTGC,647
10,CTCATCCACGCACGACTCTGCTCCGTTCCGTTCCGA,529
11,CAGCAAGCAACCCCAAAACCAGAGCGGAAGGAGGGA,770
12,TGAAGGAGCGGAAGGGTTGCTTGCAGACTGCACGGT,578
13,ATAAGAATGTAGTTTCCAAAGTTCCGGTTCCTCTTG,1510
14,TGGGCGCGCTGAGGGAGCTGGGCTTCCCGTACATGA,325
15,TTACTGCCGGAACTTGGGACCTTTGTAAGCACGTCT,1000
16,GTGTCTCTGGTGTCGGCGCTGCAGGATGACGCGAGC,531
17,GGTTTGGTGCTTTGGTGGCAGCAGGAAGGTAAGGGA,433
18,CAGTCTGGCCATGAGGTGCCACTTCCTCTCTGGTTT,1550
19,AGCAACCTACTACCCGGCGCCTGATTCACTTCCCTC,391
20,CGGGACAGCGGGCGGACTCAGCCCAGGAAGCGGCAG,373
21,TGCCTCTTCCTGTGGCTGGGCTGTATCTGACAACAC,5870
22,CTAGCAGGAAACAGACAGACCCAGCCAGAGAATCTC,1600
23,GAGGGGAGGATGTCTGAGCTTTTAATTGTAGTTTCA,588
24,CAGGCCTGTGATTTCCTCTGAGTGGATTTCTTGGCC,1320
25,CCTGCGGATCACGGAAGTGGCTGCAGTCGGCGCCAT,1560
26,CCGCCGACACACTTCCGGCGGCCACCAGAGGGTATT,21200
